Measured values reported in PubChem BioAssay AID485294 (National Center for Advancing Translational Sciences (NCATS), 2010).
The whole screen tested about 370,000 compounds, of which about 150 (0.041%) were called active. Inconclusive results, whose numbers are uncertain, are shown with a selection of clear calls. Calls come from the whole dose curve; as a rule, active = well fitted inhibition curve with a large enough effect; inconclusive = small, poorly fitted or top-dose-only effect; inactive = flat fitted curve, though single readings scatter. Potencies of inconclusive entries are left out as doubtful fits.

Biological target: Beta-lactamase (Escherichia coli (strain K12)) (UniProt P00811)
Chain of UniProt P00811 (P00811 whole entry, looked up): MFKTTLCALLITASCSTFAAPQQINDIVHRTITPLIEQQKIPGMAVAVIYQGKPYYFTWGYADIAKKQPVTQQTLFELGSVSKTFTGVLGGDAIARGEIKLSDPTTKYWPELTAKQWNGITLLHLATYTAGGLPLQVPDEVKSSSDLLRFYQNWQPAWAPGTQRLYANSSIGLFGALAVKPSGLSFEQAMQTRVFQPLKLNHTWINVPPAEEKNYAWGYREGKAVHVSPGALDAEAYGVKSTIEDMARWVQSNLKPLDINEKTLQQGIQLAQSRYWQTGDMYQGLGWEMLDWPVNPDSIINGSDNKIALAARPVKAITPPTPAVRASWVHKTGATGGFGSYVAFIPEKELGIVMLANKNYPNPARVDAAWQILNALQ
Assay: qHTS Inhibitors of AmpC Beta-Lactamase (assay with detergent); note: nearly all actives have a fitted effect of over 25% in size
Conditions: AmpC hydrolysis of nitrocefin, absorbance 480 nm, 0.01% Triton; series mostly up to 114 µM
Method in brief: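 20 mM phosphate pH 7.0 + 0.01% (detergent screen) or 0.0001% Triton X-100; 5.3 nM AmpC reagent; cpd preinc 15 min RT; nitrocefin (800 uM stock) to start; A480 q20 s × 4 min; Activity was normalised to no-enzyme and no-compound control wells.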
Potency is the fitted concentration of half-maximal effect; tags give direction and shape of the fitted curve.

SMILES	Potency
CCn1c(SCC(=O)N(Cc2ccccc2)C2CCS(=O)(=O)C2)nc2ccccc2c1=O (centres undefined)	inconclusive [inhibitor, full curve]
O=C1CCN(C(=O)Cc2ccccc2[N+](=O)[O-])CC1	inconclusive [inhibitor, single point]
CCOC(=O)c1c2ccc(OCC(=O)N/N=C/c3ccccc3C(F)(F)F)cc2n2ccccc12	inconclusive [inhibitor, single point]
O=C1OCCC1Sc1nnc(-c2ccccc2Br)n1Cc1ccccc1 (centres undefined)	inconclusive [inhibitor, partial curve]
O=C(NCCN1CCOCC1)c1ccc(Cl)c(Cl)c1	inconclusive [inhibitor, partial curve, poor fit]
CCOc1ccc(NCc2cccn2-c2nnc(N3CCC(C(=O)NCCc4ccc(OC)c(OC)c4)CC3)s2)cc1	inactive
COc1ccc(S(=O)(=O)c2cnc3ccc(OC)cc3c2N2CCC3(CC2)OCCO3)cc1	inconclusive [inhibitor, full curve]
O=C(NNC(=O)c1ccccc1[N+](=O)[O-])c1ccccn1	inactive
CN(C(=O)CSc1nnc(NCc2ccccc2)s1)C1CCS(=O)(=O)C1 (centres undefined)	inconclusive [inhibitor, full curve, poor fit]
COc1cc(C)c(Br)cc1S(=O)(=O)NCCN1CCOCC1	inconclusive [inhibitor, full curve, poor fit]
O=C(N/N=C/c1ccc([N+](=O)[O-])cc1)c1cccc(N2CCCC2=O)c1	inconclusive [inhibitor, full curve, poor fit]
CCOc1cc(S(=O)(=O)NCCCn2ccnc2)ccc1Cl	inconclusive [inhibitor, full curve, poor fit]
COC(C(=O)Nc1ccnn1C1CCN(Cc2ccc(CO)o2)CC1)c1ccccc1 (centres undefined)	inconclusive [inhibitor, full curve]
O=C(Cc1c(F)cccc1Cl)Nc1ccccc1N1CCCCC1	inactive
CCc1nnc(SCC(=O)N2CCCc3ccccc32)nc1CC	inconclusive [inhibitor, full curve, poor fit]
CN1CCN(/C(=N\O)c2nonc2N)CC1	inactive
O=C(Nc1cnn(Cc2ccc(Cl)c(Cl)c2)c1)c1nc2ncccn2n1	inconclusive [inhibitor, partial curve]
Cc1cccc(C(=O)N2CCCC(N3CCN(Cc4ccc5c(c4)OCO5)CC3)C2)n1 (centres undefined)	inactive
OCCCNc1nc(-c2ccc(Cl)cc2)nc2ccccc12	inconclusive [inhibitor, full curve, poor fit]
O=S(=O)(c1ccc2c(c1)OCCO2)N1CCN(S(=O)(=O)c2ccc3c(c2)OCCO3)CC1	inconclusive [inhibitor, full curve]
Cn1c(=O)c2ccccc2n(CC(=O)NC2CCCC2)c1=O	inconclusive [inhibitor, full curve, poor fit]
O=C(O)C1CCN(C(=O)c2ccc3c(c2)OCO3)CC1	inconclusive [inhibitor, single point]

SMILES	Potency
CC(C)CCn1c(SCC(=O)NC2CCS(=O)(=O)C2)nc2cc(Cl)ccc2c1=O (centres undefined)	inconclusive [inhibitor, single point]
COc1ccc(C(=O)NCCn2cc(SCC(=O)NCCc3ccc(OC)c(OC)c3)c3ccccc32)cc1	inactive
Cc1ccc(NC(=O)C2(c3cccs3)CCOCC2)cc1C	inactive
COCCCNC(=O)CN1C(=O)COc2ccc(S(=O)(=O)N3CCCC3)cc21	inconclusive [inhibitor, single point]
COc1ccccc1N1CCN(C(=O)c2cc3c(-c4ccc(Cl)cc4)nn(C)c3s2)CC1	inconclusive [inhibitor, full curve, poor fit]
S=C(NCc1cccc(Cl)c1)NC1CCCCC1	inconclusive [inhibitor, single point]
CCOc1cc(Cl)c(NC(C)=O)cc1OCC	inconclusive [inhibitor, full curve]
COC(=O)CS(=O)(=O)c1nc2ccccc2nc1N1CCCCC1	inactive
COc1ccc(S(=O)(=O)N2CCCCCC2)cc1NC(=O)c1ccccc1	inactive
CC(=O)c1ccc(NC(=O)CC2Nc3cccc4cccc(c34)NC2=O)cc1 (centres undefined)	inconclusive [inhibitor, single point]
COc1cccc(CN(CC(=O)NCC2CCCO2)C(=O)CCC(=O)Nc2cc(C)on2)c1 (centres undefined)	inconclusive [inhibitor, full curve]
O=C(Nc1cccc(F)c1)Nc1cccc(Cl)c1	inconclusive [inhibitor, partial curve, poor fit]
O=C(COc1cccnc1[N+](=O)[O-])c1c[nH]c2ccccc12	inactive
O=C(Nc1ccc(N2CCC(c3ccccc3)C2)c(C(=O)O)c1)c1ccc(Cl)cc1 (centres undefined)	inactive
O=C(Nc1ccc(NC(=O)N2CCN(c3ccccc3O)CC2)cc1)N1CCN(c2ccccc2O)CC1	inconclusive [inhibitor, full curve, poor fit]
Cc1c(C)n2c(SCC(=O)N3CCC(C)CC3)nnc2[nH]c1=O	inconclusive [inhibitor, full curve, poor fit]
COc1ccc(/C=C2\SC(=S)N(CCC(=O)NC3C=CS(=O)(=O)C3)C2=O)cc1 (centres undefined)	inconclusive [inhibitor, full curve, poor fit]
CCOC(=O)c1ccccc1NC(=O)Nc1cc2c(cc1N1CCCCC1)n(C)c(=O)n2C	inactive
Nc1ccc2c(c1)OCCOCCOCCOCCOCCO2	inactive
COc1ccccc1C(=O)NC(=O)CSc1nnc(N)s1	inactive
CC(c1nc2ccccc2o1)N1C(=O)c2ccccc2C1=O (centres undefined)	inconclusive [inhibitor, partial curve]
CC1=CC2(O)OCCN(CCO)C2=CC1=O (centres undefined)	inactive
